According to PubChem BioAssay AID651661 (Broad Institute, 2012):
The whole screen tested about 350,000 compounds, of which about 2,300 (0.66%) were called active. Inconclusive results, whose numbers are uncertain, are shown with a selection of clear calls.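 How the source made its calls: active means mean inhibition of at least 50% after viability correction, with every replicate also passing that limit; inconclusive means mean reaches 50% but only one of two replicates passes; inactive means the rest.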

experiment: blockers of EWS/Fli transcriptional output – A673 cells, NR0B1 luciferase, luminescence, MLPCN library, primary screen (AID 651661); settings: A673 NR0B1-luciferase reporter, viability-normalised; at 12.6 µM; hits give high values;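 further: firefly luciferase signal divided by Alamar Blue viability fluorescence both relative to DMSO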

| SMILES | inhibition |
| --- | --- |
| Cc1ccnc(NC(=O)c2ccc(C(=O)c3ccccc3)cc2)c1 | inconclusive: 54.5% |
| CCOc1ccccc1/C=C/c1cc(C(=O)O)c2ccccc2n1 | inactive: -9.55% |
| CCOCC(=O)NC1CCc2cc(OC)c(OC)c(OC)c2-c2ccc(SC)c(=O)cc21 (stereo not drawn) | inconclusive: 50.3% |
| Cc1ccnc(NC(=O)CCC(=O)c2cccs2)c1 | active: 77.6% |
| CN1c2ccc(-c3ccc(F)cc3)cc2[C@H]2[C@H](CCN2S(=O)(=O)c2cccc(F)c2)[C@H]1CO | inconclusive: 51.7% |
| Cc1ccccc1Nc1c(-c2ccccn2)nc2ccccn12 | active: 51.6% |
| O=C1C(Cl)=C(N2CCN(c3ccccc3[N+](=O)[O-])CC2)C(=O)c2ccccc21 | inconclusive: 50.6% |
| COc1ccc(/C=C2/Sc3ccc(C(=O)NCCN4CCCCCC4)cc3NC2=O)cc1 | inconclusive: 50.7% |
| COc1ccc(-c2cnnc(N/N=C/c3ccc(-c4ccc([N+](=O)[O-])cc4)o3)n2)cc1 | active: 53.3% |
| CCOCCOC(=O)c1[nH]c2c(c1C)C(=O)CC(c1ccccc1)C2 (stereo not drawn) | inconclusive: 52.8% |
| C[C@@H]1CCCCO[C@H](CN(C)Cc2ccccc2)[C@@H](C)CN([C@@H](C)CO)C(=O)c2cc(NC(=O)Nc3ccc(C(F)(F)F)cc3)ccc2O1 | inconclusive: 54.1% |
| Cc1ccc2c(c1)C=CC(C#N)N2C(=O)c1ccccc1 (stereo not drawn) | inconclusive: 53.6% |
| CCCNC(=O)N(C)C[C@H]1Oc2ncc(-c3ccc(F)cc3)cc2C(=O)N([C@@H](C)CO)C[C@@H]1C | inactive: -5.93% |
| COC(=O)C[C@@H]1CC[C@H]2[C@H](COc3ccc(NC(=O)Nc4cccc(F)c4)cc3C(=O)N2C)O1 | inconclusive: 50% |
| Cc1cc(C)c(S(=O)(=O)Nc2ccccc2-c2ccccc2)c(C)c1 | inconclusive: 52.8% |
| O=C(CCCc1ccccc1)Nc1cccc(C(=O)O)c1 | inconclusive: 51.4% |
| O=C1c2ccccc2C(=O)C1c1ccc(O)cc1 | inactive: -14.2% |
| C[C@@H]1CN([C@H](C)CO)C(=O)c2cc(NC(=O)CCC(F)(F)F)ccc2O[C@@H](C)CCCCO[C@@H]1CN(C)Cc1ccc(C(=O)O)cc1 | inactive: -4.01% |
| CCCC(=O)Nc1ccc2c(c1)C(=O)N(C)[C@@H]1CC[C@H](CC(=O)NCc3ccccc3Cl)O[C@H]1CO2 | inconclusive: 50.9% |
| C[C@H](CO)N1C[C@H](C)[C@@H](CN(C)Cc2ccc(C(=O)Nc3ccccc3N)cc2)Oc2ccc(N(C)C)cc2C1=O | inconclusive: 51.4% |
| CC(=O)Oc1cccc(N2C(=O)c3cccc4c([N+](=O)[O-])ccc(c34)C2=O)c1 | inconclusive: 50.4% |
| COc1cc(C(=O)N/C(=C\c2cn(C)c3ccccc23)C(=O)NCCCO)cc(OC)c1OC | inconclusive: 50.9% |
| Cc1ccccc1OCc1n(CC(=O)OC2CC(C)CCC2C(C)C)c2ccccc2[n+]1C (stereo not drawn) | inconclusive: 53.6% |
| C[C@@H]1CN([C@H](C)CO)C(=O)c2cccc(NS(=O)(=O)c3cn(C)cn3)c2O[C@@H]1CN(C)C(=O)Nc1ccc(F)cc1 | inactive: 9.83% |

| SMILES | inhibition |
| --- | --- |
| C[C@@H]1CCCCO[C@H](CN(C)CC2CCCCC2)[C@H](C)CN([C@H](C)CO)C(=O)c2cc(NC(=O)Nc3cccc4ccccc34)ccc2O1 | active: 86.7% |
| Cc1ccc(C(=O)c2cccc(N)c2)cc1C | inconclusive: 54.1% |
| Cc1cc(C)c2c(CCl)cc(=O)oc2c1 | inconclusive: 51.4% |
| CCSc1ccccc1C(=O)Nc1ccc(S(=O)(=O)NC(C)=O)cc1 | inconclusive: 51.5% |
| CC1CCCC(C)N1CCCNC(=O)c1ccc2c(c1)NC(=O)c1ccccc1S2 (stereo not drawn) | inactive: 10.2% |
| CN(C)c1ccc(-c2nnn(CC(=O)Nc3ccccc3N3CCOCC3)n2)cc1 | inactive: 6.16% |
| Cc1ccc(S(=O)(=O)Nc2ccc3c(c2)C(=O)N([C@@H](C)CO)C[C@H](C)[C@H](CN(C)Cc2ccc(C(=O)Nc4ccccc4N)cc2)O3)cc1 | inconclusive: 50.9% |
| COc1ccc(N2CCc3c(C)nc4c(OC)cccc4c32)cc1 | inconclusive: 50.9% |
| Cn1c(=N)n(CC(=O)c2ccc(F)cc2)c2ccccc21 | active: 77.6% |
| O=C(CCc1ccccc1)NCC(c1ccco1)N1CCc2ccccc21 (stereo not drawn) | inconclusive: 50.3% |
| CCOC(=O)C1CCN(C(=O)c2c(C)oc3c2C(=O)c2ccccc2C3=O)CC1 | inconclusive: 50.1% |
| CN(C)C(=S)N=c1ssc(=S)n1Cc1ccco1 | inconclusive: 51.3% |
| C[C@H](CO)N1C[C@H](C)[C@@H](CN(C)Cc2ccc(C(=O)Nc3ccccc3N)cc2)Oc2ccc(NC(=O)Cc3cn(C)c4ccccc34)cc2CC1=O | inconclusive: 50.6% |
| CCOC(=O)[C@]12CCCC=C1N(Cc1ccc(Cl)cc1Cl)C(=O)[C@H](CC(=O)NCc1cccc(C(F)(F)F)c1)C2 | inactive: 8.23% |
| C[C@@H](c1ccccc1)N1C[C@H]2CCCN2c2cc(Br)ccc2S1(=O)=O | active: 62.6% |
| Cc1ccccc1NC(=O)C(=Cc1ccc(C(=O)O)cc1)C(=O)Nc1ccccc1C | active: 54.2% |
| C[C@@H]1CN([C@H](C)CO)C(=O)c2cc(NC(=O)c3ccncc3)ccc2O[C@@H](C)CCCCO[C@H]1CN(C)Cc1ccc(C(F)(F)F)cc1 | inconclusive: 52.8% |
| O=C1NC(=Nc2ccc(O)cc2)S/C1=C/c1ccco1 | inconclusive: 51.4% |
| Cc1ccc(N(Cc2cc(=O)[nH]c3ccccc23)C(=O)CCl)cc1 | inconclusive: 50% |
| COc1ccc(C2=Nn3c(nnc3-c3ccccc3OC)SC2)cc1OCC1CC1 | active: 61.9% |
| Cc1ccc(NC(=O)Cn2ncc(Cl)c(Cl)c2=O)cc1S(=O)(=O)N1CCCCC1 | inconclusive: 53.9% |
| CC(C)CC#Cc1ccc2c(c1)O[C@@H](CN(C)Cc1ccc3c(c1)OCO3)[C@H](C)CN([C@H](C)CO)S2(=O)=O | inconclusive: 50.7% |
| C(=C\c1ccc2ccccc2n1)/c1ccccc1 | active: 73.9% |
| Cc1cccc(CN(C)C[C@H]2OCc3cn(nn3)CCCC(=O)N([C@H](C)CO)C[C@@H]2C)c1 | inactive: 0.574% |
